Values quoted from earlier work, collected in patent EP0396251A2, “Use of fatty acids for the treatment of diseases associated with cytokines” (NATIONAL UNIVERSITY OF SINGAPORE, priority 1989, dated 1990).

Tested on: interferon-induced antiviral state
Conditions: 10µM, cited from earlier work

SMILES | effect on interferon action (Pottathil et al., disputed by other groups) | effect on interferon action
COc1ccc2c(c1)c(CC(=O)O)c(C)n2C(=O)c1ccc(Cl)cc1 [Indomethacin] | inhibit interferon action | 
CCCCC1C(=O)N(c2ccccc2)N(c2ccc(O)cc2)C1=O (centres unmarked) [Oxyphenylbutazone] |  | inhibit interferon action

Like-named read-outs stand apart in the source and are kept apart here.
